From the supplement of paper PMC10126150
Values marked as one replicate rest on one cluster of the flow cell; about a third of the high ones do not repeat.
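Note: ATP exposure 15 min at 22 °C before imaging.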

Each sequence was assayed on ATP (assay: switch fluorescence ratio, 500 uM ATP over buffer (Cy3 cluster intensity, sum of 5 cycles each) (fold (ratio)); higher = stronger signal-on switching upon ATP binding; sequences stand for … in TCGTCGGCAGCGTCAGATGTGTATAAGAGACAGTTTTTTTTTTTTTTTTTTTTTTTTT…TC). Conditions: aptamer strand: ATP DNA aptamer (quencher-CACCTGGGGGAGTATTGCGGAGGAAGG + anchor), 100 nM annealed; ATP concentration: 500 uM; one replicate.
How it was run: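 The fluorescence ratio divides summed target-cycle Cy3 intensity by summed buffer-cycle Cy3 intensity for each cluster and is averaged per switch-domain sequence. Cy3-labelled switching-strand clusters on a modified Illumina MiSeq flow-cell were annealed to 100 nM quencher-labelled ATP aptamer, then imaged in selection buffer and again after 15 min with 500 uM ATP at 22 °C. Five such cycles were run, with NaOH stripping and re-annealing between them, and clusters outside 100-1000 RFU were excluded.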
AGAGATATAG showed a switch fluorescence ratio of 0.995. AGAGATTCGT gave a switch fluorescence ratio of 1. With AGAGCACTG the switch fluorescence ratio was 1.13. Sequence AGAGCAGGCG has a switch fluorescence ratio of 1.18. AGAGCGCATA was tested, and the switch fluorescence ratio was 1.16. In the case of AGAGCGGGAA, the switch fluorescence ratio is reported as 1.01. AGAGCTAAAA showed a switch fluorescence ratio of 0.996. Sequence AGAGCTTCG has a switch fluorescence ratio of 1.03. Work on AGAGGAAATT yielded a switch fluorescence ratio of 0.98. AGAGGAAGCA was tested, and the switch fluorescence ratio was 1.01. AGAGGAATGG showed a switch fluorescence ratio of 1.07. Sequence AGAGGAGGCG has a switch fluorescence ratio of 1.01. AGAGGCAACT showed a switch fluorescence ratio of 1.02. AGAGGCGAGC gave a switch fluorescence ratio of 0.952. AGAGGGATCG gave a switch fluorescence ratio of 1.01. Sequence AGAGGGCTGA has a switch fluorescence ratio of 1.03. AGAGGGTCGG showed a switch fluorescence ratio of 1.03. AGAGGTTCCG showed a switch fluorescence ratio of 0.908. Sequence AGAGGTTGAA has a switch fluorescence ratio of 0.963. In the case of AGAGTACATT, the switch fluorescence ratio is reported as 1.03. AGAGTAGGCC was tested, and the switch fluorescence ratio was 1.01. Sequence AGAGTCATAG has a switch fluorescence ratio of 0.985. Sequence AGAGTGAGCA has a switch fluorescence ratio of 0.984. With AGAGTGCTGC the switch fluorescence ratio was 1.05. AGAGTTATCA showed a switch fluorescence ratio of 0.999. Sequence AGATAACACT has a switch fluorescence ratio of 1.05. Work on AGATATGGGA yielded a switch fluorescence ratio of 0.968. AGATATGTAG gave a switch fluorescence ratio of 1.07. For AGATCACTC, the switch fluorescence ratio was 1.05. AGATCAGAAA gave a switch fluorescence ratio of 0.994. For AGATCGGGCA, the switch fluorescence ratio was 1.01. For AGATCTCTCC, the switch fluorescence ratio was 1.07. AGATGAAATG showed a switch fluorescence ratio of 1.02. For AGATGATAAA, the switch fluorescence ratio was 1.02. In the case of AGATGCTAAA, the switch fluorescence ratio is reported as 1.01. In the case of AGATGCTACA, the switch fluorescence ratio is reported as 0.974. With AGATGGCTGC the switch fluorescence ratio was 1. AGATGGCTTC gave a switch fluorescence ratio of 1.01. Sequence AGATGGGAT has a switch fluorescence ratio of 0.993. Work on AGATGGGCTA yielded a switch fluorescence ratio of 1.01. With AGATGTAAAG the switch fluorescence ratio was 1.01. In the case of AGATGTCCCT, the switch fluorescence ratio is reported as 1.04. With AGATGTTGCG the switch fluorescence ratio was 0.976. For AGATTAGGT, the switch fluorescence ratio was 1.06. Sequence AGATTATTGG has a switch fluorescence ratio of 0.978. With AGATTCAAA the switch fluorescence ratio was 0.987. AGATTCCCTG showed a switch fluorescence ratio of 0.983. AGATTCCTCG showed a switch fluorescence ratio of 1.11. AGATTGGGT showed a switch fluorescence ratio of 1.06. Sequence AGATTTGGGG has a switch fluorescence ratio of 0.967. With AGATTTGGTA the switch fluorescence ratio was 1.01. AGATTTGTGA showed a switch fluorescence ratio of 1.03. Work on AGCAAAACG yielded a switch fluorescence ratio of 1.1. Sequence AGCAAAGAGG has a switch fluorescence ratio of 1.03. AGCAACCCCA was tested, and the switch fluorescence ratio was 1.76. For AGCAAGAGGG, the switch fluorescence ratio was 1.09. Sequence AGCAAGGTAC has a switch fluorescence ratio of 2.61. For AGCAAGTTCC, the switch fluorescence ratio was 1.62. Sequence AGCAATCTT has a switch fluorescence ratio of 1.78. AGCACAATGG was tested, and the switch fluorescence ratio was 1.05. Work on AGCACATAGG yielded a switch fluorescence ratio of 1.09. AGCACGACCA gave a switch fluorescence ratio of 1.64. In the case of AGCACTATGG, the switch fluorescence ratio is reported as 1.08. AGCACTCCAT gave a switch fluorescence ratio of 1.13. AGCAGATGAA showed a switch fluorescence ratio of 0.999. AGCAGTATAG showed a switch fluorescence ratio of 1.03. In the case of AGCAGTATTG, the switch fluorescence ratio is reported as 1. With AGCAGTCACC the switch fluorescence ratio was 1.02. Work on AGCAGTGGCC yielded a switch fluorescence ratio of 1.02. AGCAGTTGAC was tested, and the switch fluorescence ratio was 1.16. AGCAGTTGTT showed a switch fluorescence ratio of 1. AGCATACCAT showed a switch fluorescence ratio of 1.06. Work on AGCATATGCG yielded a switch fluorescence ratio of 1.08. AGCATGCACA was tested, and the switch fluorescence ratio was 1.04. Work on AGCATGGGTC yielded a switch fluorescence ratio of 1.05. For AGCATGGTT, the switch fluorescence ratio was 0.97. With AGCATTTTTA the switch fluorescence ratio was 0.995. For AGCCAACAT, the switch fluorescence ratio was 1.06. In the case of AGCCAAGATT, the switch fluorescence ratio is reported as 0.977. Sequence AGCCACAC has a switch fluorescence ratio of 1.06. In the case of AGCCACCC, the switch fluorescence ratio is reported as 1.09. In the case of AGCCACCGGG, the switch fluorescence ratio is reported as 1.17. Sequence AGCCACTTCC has a switch fluorescence ratio of 2.35. With AGCCAGAGGA the switch fluorescence ratio was 0.977. Sequence AGCCCAGTTC has a switch fluorescence ratio of 1.04.
